Whole data set: some 1,800 sequences, median “median log2 fold change of GCK-ALFA target abundance (FLAG IP / Myc IP barcode read proportion)” near 0.14, cut for the lowest 2% near -0.84. The list shows a part of the results.
T1: TRAF2, Q12933
T1 chain: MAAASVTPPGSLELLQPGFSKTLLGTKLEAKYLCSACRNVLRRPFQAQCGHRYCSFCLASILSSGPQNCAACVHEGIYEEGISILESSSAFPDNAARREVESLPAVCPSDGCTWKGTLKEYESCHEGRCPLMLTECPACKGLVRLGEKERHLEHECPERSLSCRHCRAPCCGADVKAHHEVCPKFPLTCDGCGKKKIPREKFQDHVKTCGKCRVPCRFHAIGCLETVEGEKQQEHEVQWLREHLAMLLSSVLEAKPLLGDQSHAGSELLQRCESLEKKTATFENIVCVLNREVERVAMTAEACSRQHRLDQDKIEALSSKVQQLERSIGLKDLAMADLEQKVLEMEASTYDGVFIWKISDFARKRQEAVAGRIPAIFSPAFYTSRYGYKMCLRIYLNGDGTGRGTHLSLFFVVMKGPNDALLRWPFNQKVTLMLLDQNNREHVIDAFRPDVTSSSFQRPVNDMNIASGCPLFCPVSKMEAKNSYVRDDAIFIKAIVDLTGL

B1: traf2_out_20_38_2014 (protein)
chain: SEEEEERRREEELIEKAREAYDEAEKWVAELKAKGKSVEEIAEEAKKRVTELLNAAGLEEEAKILVEDIDRVKDSPDAERLIVRILARARTLVFQKELQK
B2: traf2_out_5_63_2360 (protein)
chain: SEREELTALAREADRLVRELLAAARAGDAARVDALLERAVADPELARLVLGILKGEARYYKLRGDQPEEAALAAALAAQLAARMAEAAAAEAAAAAAAAA
B3: traf2_out_1_27_1017 (protein)
chain: SDEELTELIRETDRKIAAVSLEEAKEVVKEALREAYELGPEDAVVLATTLIASQLDEERLEAIREAAVEAFKELGFPQETIDRLKRIADSVLERNKKVAA
B4: traf2_out_6_156_2400 (protein)
chain: MVEKILEETKKKIEELIKELSEASEEKKIAYINRIAGTVYRGLQRLREAGASLEELRKFVEEVLKFTEKKLKEAGIPEDIRNLILSSLNAVGEVALAEAA
B5: traf2_out_13_95_1160 (protein)
chain: SKELAKKIMEIADEMLDESEKILEELLKIAKEKGKLEKEVQEALDLARYRSINEAIHKLEELAKKYPEFKEEFEKAIKKLKELKREAGKKVAKLIKEEEE
B6: traf2_out_20_3_2151 (protein)
chain: SELEEEARRALEEAIRLLAEAAELADPETAAELEELRARVEASRELPPEDRLVVLSEVRRRVLELAERARAAGREELAAVLEEAAEALNRAMQLVYQLIL
B7: traf2_out_20_3_2194 (protein)
chain: SELEKELEKELQKAIKLLEEAAKLADPETAAKLKKLIKRIKESRKLSYSDRLVVLSEVRREVLRLAEEAKKAGKEELAKVLEKAAEALNKAMNILMKIIE
B8: traf2_out_20_3_2170 (protein)
chain: EELEKELEKVLKEAIETLKKAAEKADEETAKKLEELIKRLKESRKLSPEDRLVELSEIRREVLKLAEEAAKKGDEELAKLLEEAADLLNRAMQLEYKIIE
B9: traf2_out_17_162_1521 (protein)
chain: SPLEAELKALEAELEALKKKLEELKKKLENLDKMSKEELTDLLVEASEARRKALELAERLKRLKPLIGEERAGALIAEAEAIAEELQKIANKIYKKLEEK
B10: traf2_out_17_178_1677 (protein)
chain: SKEEERKKISEYTDELIDLTEETGAEFLAIARAEGTLSPEELAALEAARRRGSNRTFLALARRAAPKLKTAEEAQALLDEFEKKARELEKKIAEAYKKYE
B11: traf2_out_9_17_2607 (protein)
chain: SALEEKKREAILEAAEEVLKELVEEGYITEEQAEEILKKVKELIEEGKSPEEIVASFLGDIASTLLTKSDLPLSEVNKVVGEAYRRLRERLAEAEEELAA
B12: traf2_out_11_169_836 (protein)
chain: KEQEKNRKINDKALELNDKAKEELKKFALKLAKEAGLDVEEIEKIFEENKGKSFSYIAGKLIDYFTSQGKEEAAKAILEKYEELKDKINKEATAFIKSLE
B13: traf2_out_13_95_1109 (protein)
chain: SKETAEKIMEVADEMLDKVEELLEKLLEKAKAAGKLEEEVQEALDLAKYRSINEAIHLLEELAKKYPEFKEEFEKTIEEIKALKREAGRKVAEILKEEKE
B14: traf2_out_6_3_2526 (protein)
chain: DEESLRRDARRVLENMGITTAEQLKALVKAEVNAVKKVASRPDIDQADIAGLRSVLALARAMVDVAAEELPDVTEEDVKEMNALIAEAEALVEAKAKELA
B15: traf2_out_13_95_1226 (protein)
chain: SAEANEKLREVSNEMLDRAEAVVDALEAQLAPHPELQPAMAAVRRALREQGIRAAIAQLRAAAAQFPEVAALLDAAAAELEAIRREAGRRVAEILKEEKE
B16: traf2_out_10_21_630 (protein)
chain: SEEREKALEIVKEYIESGEAPYVAALLAAELILREKGVDVETMGEILHALAKELKKLSDEEVLELAKKYYEAIENKDEEEIEKLLEELKKLAEEEKEKKA
B17: traf2_out_16_171_1439 (protein)
chain: MKEEEEKKLKEEIEREAEELIERLETAVEMTPLIMKETGLSKEQIAKGVRSTFTDRIEHLEKIWEEKSKNASEEVKKFIKEELERVKKALEEAIKKILAI
B18: traf2_out_12_187_945 (protein)
chain: SVQDELIAAAKAALERAIKALEKVAPTSEEAKEFLEKLKKIAELMEKHPELAADANVAASAVLRWVRLVEAGAPAEEIAAAAARAKEILEEVLKEAEKLA
B19: traf2_out_13_95_1045 (protein)
chain: SKELAEKIMEISDEMLDKVLELLEKAKEEAKDDPEAVKVFDEAKRLALTRGINEAIHLLEEAKKAHPEHKELFDRTIKELREIRREAGRKVAELIKEEKE
B20: traf2_out_20_3_2132 (protein)
chain: EELKKELEKEIEKAIKLLKEAAKLADPERAKELEKLIKKLKESEKLPLSDQLVVLSEIRREVLRMAEEARKEGKEELAKVLEEAADAINKAMNLLMKLIE
B21: traf2_out_13_95_1185 (protein)
chain: EKEKTEKLRKETNAIADRLIDRAEELAKRIEEETGRPEFRDRILRALRRGGVRAAVHLIRELAEEHPEHREVFERAAAELEAAIREAGREVAKIEKEIEE
B22: traf2_out_11_79_929 (protein)
chain: SELREELRRLLEEARRLLEELIEKMKAGKISPEEWRRMLEEILRLLQRAAQLALELGLSDVLVHISEARRHVLLAEDGDLEQLEEALRHVEEALRELERE
B23: traf2_out_11_169_794 (protein)
chain: EEQEKNREINDFALELNDEAKERLKEFALELAKEAGLDVAAVEAIFEANKNASLSAVAAALIEWFKSQGAEEAAKKVEEKYEELKEEINKKATEKIKELE
B24: traf2_out_17_162_1607 (protein)
chain: EELEKEIKELEEKLKKLREELKRLKEKLKRIDELSKEELTDLLVEASEARREALEALERIEELKEKLDKELYEKLSKEFEKLAEEFQRIANEFYKKLEEK
B25: traf2_out_17_162_1575 (protein)
chain: EELEKRLEELKKRLEELEKELEEFKKKLPDIPKMSYEELTDLLVEVSEKKREARELAEEIRELGEKLGSEELRELAERAERLAEEFNRIANKIYKEIEKK
B26: traf2_out_16_104_1389 (protein)
chain: SAATDAAFAAIIAELEKIAEEAQKLANEIYKLYEKASEEKKTELSDLLVEVSELKREALEAAEAARAARAAGGDVAEAQAALERLKKKLKELKEKLKELK
B27: traf2_out_18_167_1851 (protein)
chain: EEEIRKKREELSDRLVQLSEVKRAARAALQALETDPSLVPAELARLAEAAASIPELQPLVAAARAALEAGDREGLRATLEALIEKAQKLMNEVLKEYEKL
B28: traf2_out_11_155_745 (protein)
chain: EERLKLLQEMNDKIMELFDEAREKALEIARKAAEKHPEHKEAIEAKIEATKGFSYRSFILELIRLFKELGLEEEAEELEKLLEETQKEANKIVQETEEKL
B29: traf2_out_3_89_2303 (protein)
chain: MEEEKKKIEEARKIAEAYLKGFEKSLRFVAKEMIEDGMSLETLKGVAEAARNALLEEFRESLKERGLSEEEIEKLVKELEEELEKVVEEVIEEAEKRRKE

Molecular target: T1, TRAF2, Q12933
Assay: median log2 fold change of GCK-ALFA target abundance (FLAG IP / Myc IP barcode read proportion) (log2 ratio); each designed protein is fused to an ALFA-tag nanobody in HEK293 cells to bring the named protein to FLAG-tagged glucokinase (GCK); Myc marks an untargeted standard; higher = target protein stabilised (more abundant)
Settings: target protein: 3xFLAG-MCP-GCK-ALFA reporter; HEK293 landing pad (RPLP)
Method: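 LABEL-seq trans screen in HEK293 landing-pad cells. Each de novo designed 100-aa effector handle, binding the indicated effector (E3 ligase, DUB or autophagy protein), is fused to a constant NbALFA target handle and induced with 2 ug/mL doxycycline. A FLAG-MCP-GCK-ALFA target and a Myc-MCP standard reporter were transfected, and after 48 h circRNA barcodes were recovered by anti-FLAG and anti-Myc IP and sequenced. The value is the median across barcodes (at least 3 per design) of log2(FLAG/Myc read-proportion ratio), with the two transfection replicates pooled. Negative values mean degradation and positive values mean stabilisation of the target.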

First: B1
Second: B2
The “median log2 fold change” value of the first is higher: 0.392 for the first, -0.0509 for the second.

B3 and B4 are within 0.2 log units of each other in “median log2 fold change” value: 0.124 for the first, -0.0734 for the second.

Compared with B5, B6 is higher in “median log2 fold change” value: -1.21 for the first, 0.119 for the second.

B7 and B8 are within 0.2 log units of each other in “median log2 fold change” value: 0.238 for the first, 0.361 for the second.

B9 and B10 are within 0.2 log units of each other in “median log2 fold change” value: 0.311 for the first, 0.253 for the second.

B11 and B12 are within 0.2 log units of each other in “median log2 fold change” value: 0.235 for the first, 0.2 for the second.

Compared with B13, B14 is higher in “median log2 fold change” value: -0.738 for the first, -0.0761 for the second.

Compared with B15, B16 is higher in “median log2 fold change” value: -0.0202 for the first, 0.313 for the second.

B17 and B18 are within 0.2 log units of each other in “median log2 fold change” value: 0.062 for the first, 0.258 for the second.

First: B19
Second: B20
The “median log2 fold change” value of the first is lower: -0.493 for the first, 0.365 for the second.

Going from B21 to B22, the “median log2 fold change” value falls from 0.0827 to -0.224.

Compared with B23, B24 is lower in “median log2 fold change” value: 0.568 for the first, 0.299 for the second.

B25 and B26 are within 0.2 log units of each other in “median log2 fold change” value: 0.308 for the first, 0.342 for the second.

B27 and B28 are within 0.2 log units of each other in “median log2 fold change” value: 0.103 for the first, 0.0401 for the second.

With B29 the “median log2 fold change” value was -0.145.

Reference: the supplement of paper PMC12632987
